Measurements published in PubChem BioAssay AID1508623 (National Center for Advancing Translational Sciences (NCATS), 2021).
The whole screen tested about 48,000 compounds, of which about 450 (0.94%) were called active. Roughly 19% stayed inconclusive and do not appear here. The call rests on the fitted dose curve; in most records, active means well fitted inhibition curve with a large enough effect; inconclusive means small, poorly fitted or top-dose-only effect; inactive means no such curve, though single readings can be large or run the other way. The list shows a part of the results.

Experiment: Primary qHTS for Identification of Small Molecule Inhibitors of Huntingtin Promoter Activity; further: nearly all actives have a fitted effect of over 50% in size
Settings: HEK293 HTT promoter firefly luciferase reporter (activity 0% = vehicle and -100% = no light), 24 h; series mostly up to 57.5 µM; activity change, negative = inhibition: at the top concentration
In short: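 HEK293 Fluc reporter, 2,500 cells/well, 24 h pre-culture; cpds up to 57.5 uM final, 24 h 37 degrees C; Dual-Glo, 10 min RT; normalized vehicle = 0%, zero RLU = -100%.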

Row | Structure (SMILES) | activity change, negative = inhibition
1 | O=C(CCn1c(=O)c2ccccc2n(Cc2cccc(Cl)c2)c1=O)NCCc1ccccc1 | inactive: -1.29%
2 | O=C(NCc1ccc(F)cc1)C1(c2cccs2)CCOCC1 | inactive: -6.91%
3 | Cc1ccc(OCC(=O)Nc2nnc(S(=O)(=O)N3CCCCCC3)s2)cc1 | inactive: -7.05%
4 | COc1cc(Nc2nc3c(S(=O)(=O)c4ccc(C)c(C)c4)nnn3c3ccsc23)cc(OC)c1 | inactive: -17.4%
5 | Oc1ccc(NCc2ccccc2OCc2ccc(Cl)cc2)cc1 | inactive: 21.2%
6 | CCOC(=O)c1c(NC(=O)C2c3ccccc3Oc3ccccc32)sc(C)c1CC | inactive: -19.7%
7 | CCn1c(=O)cc(OCC(=O)N(C)c2cc(Cl)ccc2C)c2ccccc21 | inactive: -15.3%
8 | COC(=O)c1ccccc1NC(=O)N1CCC(N2CCN(Cc3ccc(F)cc3)C(=O)C2=O)CC1 | inactive: -0.8%
9 | CC(C)(C)C1CCc2nc(NC(=O)Cc3ccccc3)sc2C1 (stereo not given) | inactive: 39.6%
10 | CSc1ccc(-c2nc3cccc(C)n3c2Nc2ccc(Cl)cc2)cc1 | inactive: 9.85%
11 | COc1ccccc1N1C(=O)N(CC(=O)C(C)(C)C)c2ccccc2S1(=O)=O | inactive: -15%
12 | CCCCC(CC)COC(=O)c1ccc(N(C)C)cc1 (stereo not given) | inactive: -1.85%
13 | COc1cc(O)c(C(=O)c2ccccc2)cc1S(=O)(=O)O | inactive: 3.23%
14 | CN(C)CCNC(=O)c1ccc(-c2nn(C)c(=O)c3ccccc23)cc1 | inactive: 1.1%
15 | Nc1cccc2c1C(=O)N(C1CCC(=O)NC1=O)C2=O (stereo not given) | inactive: 2.99%
16 | O=C(O)Cc1ccccc1Oc1ccc(Cl)cc1Cl | inactive: 0.178%
17 | COc1cc(OC)cc(OC)c1 | inactive: 10.4%
18 | CCOc1ccc(CCNC(=O)c2nn(C)c3c2CSc2ccccc2-3)cc1 | inactive: -24.8%
19 | Cc1cccc(C(=O)NNc2ncnc3c2cnn3-c2ccc(C)cc2C)c1 | inactive: -8.94%
20 | O=C(O)c1ccc(NC(=O)c2cc(S(=O)(=O)N3CCCCC3)c(Cl)cc2Cl)cc1 | inactive: -14.2%
21 | COc1cccc(C(=O)Nc2nnc(S(=O)(=O)N3CCCC3)s2)c1 | inactive: -6.69%
22 | Cc1ccc(Cn2cnc3nc4c(cc3c2=O)CC(C)CC4)cc1 (stereo not given) | inactive: 46.6%
23 | CC(C)c1ccc(S(=O)(=O)c2cnc(SCC(=O)Nc3ccc4c(c3)OCCO4)[nH]c2=O)cc1 | inactive: -5.69%
24 | CCCNC(=O)CN1C(=O)CSc2ccc(S(=O)(=O)N3CCC(C)CC3)cc21 | inactive: -19.4%
25 | CCC(C)NC(=O)CCCc1nnc2n(CC(C)C)c(=O)c3sccc3n12 (stereo not given) | inactive: -3.08%

Row | Structure (SMILES) | activity change, negative = inhibition
26 | Cc1ccccc1-c1noc(-c2ccc(NCc3ccco3)c([N+](=O)[O-])c2)n1 | inactive: 3.03%
27 | COc1ccc2c(Sc3ccc(C)cc3)c(C(=O)NC(C)C)[nH]c2c1 | inactive: -28.2%
28 | CCOc1ccc(-n2c(=O)c3c(C)c(C)sc3n(CC(=O)NCCc3ccccc3)c2=O)cc1 | inactive: -6.8%
29 | O=c1oc2ccccc2c(N2CCN(c3ccccc3F)CC2)c1CN1CCCC1 | inactive: -12.9%
30 | CCOc1ccc(C2CC(=O)c3c([nH]c(C(=O)OCC4CCCCC4)c3C)C2)cc1 (stereo not given) | inactive: -1.03%
31 | COCCCNC(=O)c1nn(-c2ccc(C)cc2)nc1CO | inactive: -14.6%
32 | COc1cccc(NC(=O)C(Cc2ccccc2)NS(=O)(=O)c2ccc3c(c2)c(=O)n(C)c(=O)n3C)c1 (stereo not given) | inactive: -13.5%
33 | CCCc1cc(=O)oc2cc(C)c3c(-c4ccccc4)coc3c12 | inactive: -10.8%
34 | O=C(CN1C(=O)CSc2ccc(S(=O)(=O)N3CCCC3)cc21)Nc1cccc(Cl)c1 | inactive: -20.3%
35 | Cc1ccc(NC(=O)CC2Nc3ccccc3NC2=O)cc1C (stereo not given) | inactive: -6.7%
36 | Cc1ccccc1C(=O)N(Cc1sccc1C)C1CCS(=O)(=O)C1 (stereo not given) | inactive: -12%
37 | COc1ccc(CCNC(=O)c2ccc(Cn3c(=O)c4ccccc4n(CC(=O)C(C)(C)C)c3=O)cc2)cc1OC | inactive: -16.2%
38 | COc1cc(NC(=O)CCn2nc(C)c(S(=O)(=O)N3CCCCC3)c2C)cc(OC)c1OC | inactive: -23.6%
39 | CC1CCCCN1CCCNC(=O)CN1C(=O)c2cccnc2Oc2ccccc21 (stereo not given) | inactive: -3.15%
40 | COc1ccc(Cl)cc1NC(=O)c1c(NCc2cccnc2)sc2c1CCC(C)C2 (stereo not given) | inactive: -28.1%
41 | Cc1ccc(Cl)cc1NC(=O)CCCn1c(=O)c2cccn2c2cccnc21 | inactive: -0.173%
42 | COc1ccccc1NC(=O)C1=C(C)Nc2c(C(=O)Nc3cccc(C)c3)cnn2C1c1ccccc1Cl (stereo not given) | inactive: -9.25%
43 | COCCCNC(=O)c1ccc(Cn2c(=O)c3ccccc3n(Cc3c(C)cc(C)cc3C)c2=O)cc1 | inactive: -5.91%
44 | CCN1CCN(C(c2ccc(SC)cc2)c2c(O)cc(C)n(CCOC)c2=O)CC1 (stereo not given) | inactive: -11.6%
45 | O=c1cc(-c2ccc(F)cc2)nc(SCc2nc(-c3ccc(Cl)cc3)no2)[nH]1 | inactive: 5.43%
46 | CCOC(=O)c1c(C)[nH]c(C)c1S(=O)(=O)NCC(=O)NCc1cccc(C)c1 | inactive: -15.3%
47 | CCOC(=O)c1ccc(CN(Cc2ccc(Br)cc2)S(=O)(=O)c2cccc(Cl)c2C)cc1 | inactive: -18%
48 | COc1cc(C(=O)NCC(c2ccc(Cl)cc2)N2CCOCC2)cc(OC)c1OC (stereo not given) | inactive: -3.92%
49 | CCOC(=O)CC(NC(=O)Cn1nnc(-c2ccccc2F)n1)c1ccccc1Cl (stereo not given) | inactive: -14.8%
50 | CCc1ccc(C2C(C(=O)Nc3ccccc3C)=C(C)Nc3nc(SCc4cccc(OC)c4)nn32)cc1 (stereo not given) | inactive: -4.14%

Row | Structure (SMILES) | activity change, negative = inhibition
51 | CC(=O)c1ccc(NC(=O)CSc2nc(=O)n(Cc3ccncc3)c3c2CCC3)cc1 | inactive: 0%
52 | CCS(=O)(=O)c1ncc(N(Cc2ccco2)Cc2ccccc2F)c(C(=O)Nc2cccc(Cl)c2)n1 | inactive: -26.5%
53 | O=C(Cn1c(=O)nc(-c2ccccc2)c2ccccc21)NCc1ccccc1Cl | inactive: 8.86%
54 | Cc1ccc(N2CCN(C(=O)c3cn(C)c4ccc(S(=O)(=O)N(C)C)cc4c3=O)CC2C)cc1 (stereo not given) | inactive: -12%
55 | CC(C)(Oc1ccc(Br)cc1)C(=O)Nc1cc(-c2nc3ccccc3[nH]2)ccc1Cl | inactive: -3.55%
56 | O=C(CN1N=C(c2ccc(Cl)cc2)CCC1=O)NCCc1ccccc1 | inactive: -10.3%
57 | Cc1ccc(NC(=O)Cn2nc(Cc3ccncc3)c3ccccc3c2=O)c(Cl)c1 | inactive: -9.12%
58 | CNCc1ccccc1 | inactive: 8.67%
59 | COc1ccccc1CNC(=O)CN1N=C(c2ccccc2)CCC1=O | inactive: -5.19%
60 | CCOc1ccc(NC(=O)c2oc3ccccc3c2NC(=O)c2ccc(OC)cc2OC)cc1 | inactive: -5.25%
61 | COc1ccc(CNC(=O)CS(=O)Cc2nc(-c3cccc(C)c3)oc2C)cc1 (stereo not given) | inactive: -8.25%
62 | Fc1ccccc1N1CCN(c2nccn3nc(-c4ccc(Br)cc4)cc23)CC1 | inactive: -14.3%
63 | Cc1ccc(S(=O)(=O)NCC2CCC(C(=O)NCCCOC(C)C)CC2)cc1 (stereo not given) | inactive: -12.6%
64 | CCCCN(CC)CCNC(=O)c1cc2c(=O)n(CC)c3ccccc3c2s1 | inactive: -2.11%
65 | CCCCNc1nc2ccccc2c2nc(-c3ccccc3)nn12 | inactive: 0.03%
66 | Cc1nc(SCCOc2ccccc2F)[nH]c(=O)c1Cc1ccccc1 | inactive: -4.83%
67 | Cc1ccccc1NC(=O)c1oc2c(c1C)-c1nn(Cc3cccc(Cl)c3)cc1CC2 | inactive: -13.4%
68 | CC1(C)Cc2c(c(N3CCOCC3)nc3sc(C(=O)Nc4ccc(Cl)cc4)c(N)c23)CO1 | inactive: -5.11%
69 | Cc1cccc(NC(=O)CSc2nc(-c3cccc(C)c3)nc3c2Cc2c(CO)cnc(C)c2O3)c1 | inactive: -11.4%
70 | CCc1nc2ccc(C(=O)NCc3ccc(OC)c(OC)c3)cc2nc1CC | inactive: 0.88%
71 | Cc1ccc2c(CC(=O)Nc3cccc(C(F)(F)F)c3)coc2c1 | inactive: -26.9%
72 | Cc1ccc2c(c1)-c1onc(C(=O)N(C)c3cccc(C(F)(F)F)c3)c1CO2 | inactive: -17.7%
73 | Cc1ccccc1CNC(=O)Cn1c(C)c2cnn(-c3ccccc3)c(=O)c2c1C | inactive: -19.7%
74 | CCOC(=O)c1sc(N2C(=O)c3oc4ccccc4c(=O)c3C2c2ccc(C(C)(C)C)cc2)nc1C (stereo not given) | inactive: -17.9% [at 11.5 µM]
75 | CCCCOc1ccc(C(=O)Nc2cc(-c3ccc(C)cc3)no2)cc1 | inactive: 0.989%

Row | Structure (SMILES) | activity change, negative = inhibition
76 | Cc1cccn2c3c(c(=O)nc12)C(c1cccc(F)c1)CC(=O)N3 (stereo not given) | inactive: -6.86%
77 | N[C@@H](Cc1c[nH]c2ccc(O)cc12)C(=O)O | inactive
78 | Cc1ccc(C)c(NC(=O)CSc2c(C)cnc3c2c(=O)n(C)c(=O)n3C)c1 | inactive: -11%
79 | O=C(Cn1cnc2nc3c(cc2c1=O)CCCC3)N1CCN(c2cccc(C(F)(F)F)c2)CC1 | inactive: -23.1%
80 | CCOc1ccc(OCC)c(NS(=O)(=O)c2c(C)[nH]c(=O)[nH]c2=O)c1 | inactive: -8.25%
81 | CN1C[C@@H]2C[C@H]1CN2c1cc2c(cc1F)c(=O)c(C(=O)O)cn2C1CC1 | inactive: 1.47% [at 25.2 µM]
82 | CCC(=O)N1c2ccccc2CC1C(=O)N1CCN(c2cccc(OC)c2)CC1 (stereo not given) | inactive: -4.86%
83 | Cc1ccc(N(C)C(=O)CC(C)S(=O)(=O)c2ccc3c(c2)NC(=O)CO3)cc1 (stereo not given) | inactive: -0.659%
84 | CCc1ccc(NC(=O)Cn2ccn(-c3ccc(OC)cc3)c(=O)c2=O)cc1 | inactive: -23.1%
85 | COc1ccc(CCNC(=O)c2csc3c2CCCCC3)c(OC)c1 | inactive: -22.3%
86 | COc1ccc(Cn2c(C(=O)O)c(CNC3CCCC3)c3ccc(C)cc32)cc1 | inactive: -3.88%
87 | Cc1cccc(NC(=O)CC2Nc3cccc4cccc(c34)NC2=O)c1 (stereo not given) | inactive: -9.18%
88 | COC(=O)c1cc2oc(C)cc2n1Cc1cc(C)ccc1C | inactive: -10.2%
89 | CCOc1ccc(NC(=O)CSc2nc(-c3cccc(Cl)c3)nc3c2Cc2c(CO)cnc(C)c2O3)cc1 | inactive: -9.85%
90 | Cc1ccc(C)c(NC(=O)Cn2ncc3c([nH]c4ccccc43)c2=O)c1 | inactive: 5.09%
91 | Cc1cc2c(cc1S(=O)(=O)CCC(=O)N(C)C1CCCCC1)OCC(=O)N2 | inactive: -10.9%
92 | COCCN(Cc1ccco1)C(=O)Cn1ncc2c([nH]c3ccccc32)c1=O | inactive: -2.11%
93 | Cc1ccc(-c2nnn3c2nc(NCCc2ccccc2)c2ccccc23)cc1 | inactive: -2.09%
94 | CN(c1ncnc2c1c(-c1ccccc1)cn2-c1cccc(Cl)c1)C1CCCCC1 | inactive: -26.8%
95 | COc1cccc(NC(=O)CCc2nc(-c3ccc(C(C)(C)C)cc3)no2)c1 | inactive: -85.2%
96 | Cc1cccc(-n2c(=O)c3c(c4cc(C)ccc4n3C)n(C)c2=O)c1 | inactive: -13.3%
97 | Cc1ccc(C)c(C(=O)CSc2nc(-c3ccccc3)nc3c2CCCC3)c1 | inactive: -5.07%
98 | Cc1c(Cl)cccc1NC(=O)N1CCC(CN2CCOCC2)CC1 | inactive: -9.82%
99 | OCc1ccc(Cl)cc1Cl | inactive: 0.0215%
100 | CCOc1ccccc1NC(=O)C1CCCN(c2ncnc3onc(-c4ccc(F)cc4)c23)C1 (stereo not given) | inactive: -15.6%
